Measurements from PubChem BioAssay AID1508624 (National Center for Advancing Translational Sciences (NCATS), 2021).
Screen size: about 48,000 compounds; about 120 (0.25%) were called active. About 4% were inconclusive and are not listed. The call rests on the fitted dose curve; in most records, active means well fitted activation curve with a large enough effect; inconclusive means small, poorly fitted or top-dose-only effect, or another doubt; inactive means no such curve, though single readings can be large or run the other way. Some of the results follow.

Test: Primary qHTS for Identification of Small Molecule Activators of Huntingtin-Antisense Promoter Activity; further: nearly all actives have a fitted effect of over 55% in size
Conditions: HEK293 HTT-AS promoter firefly luciferase reporter (activity 0% = vehicle and -100% = no light), 24 h; series mostly up to 57.5 µM; activity change, positive = activation: at the top concentration
In short: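 Firefly luciferase signal from promoter-reporter HEK293 cells was scaled between vehicle (0%) and zero RLU (-100%). Compounds were tested at final concentrations of up to 57.5 uM over 24 h at 37 degrees C. PTC124 at 50 uM final served as control inhibitor.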

Activity change, positive = activation, inactive:
Cn1c(=O)c(=O)n(C)c2cc(S(=O)(=O)N3CCCC3C(=O)Nc3ccc(F)cc3)ccc21 (centres undefined) -3.77%
CCOc1ccc(CNC(=O)Cn2ccc3cc(S(=O)(=O)N4CCCCC4)ccc32)cc1 -21.9%
Cc1ccc(NC(=O)CSc2ccc(-c3ccccn3)nn2)cc1F -16.4%
COc1ccc(S(=O)(=O)N(CC(=O)NCCSCc2ccccc2)c2ccc(C)cc2)cc1 -24.4%
CC(C)c1ccc(NC(=O)c2ccc3c(O)c(S(=O)(=O)c4ccccc4)c(=O)[nH]c3c2)cc1 0.134%
O=c1c2ccccc2n2c(-c3ccccc3F)nnc2n1CCc1ccccc1 0%
COc1cc(OC)c(N(C)C(=O)c2cc3c(=O)oc4ccccc4c3s2)cc1Cl -6.77%
Cc1ccc(-n2nc(C(=O)N(C)Cc3ccccc3)c3c4ccccc4n(C)c3c2=O)cc1 -13.3%
Cc1ccc(C(=O)N(c2ccc(C)cc2)S(=O)(=O)c2ccc(Cl)cc2)cc1 -19.1%
Cc1ccc(-n2c(=O)c3c(c4cc(C)ccc4n3C)n(Cc3ccc(F)cc3)c2=O)cc1 -2%
Cc1ccc(NC(=O)C(Cc2ccccc2)N2Cc3ccccc3C2=O)cc1Cl (centres undefined) -33.5%
O=C(CCC1N=C2c3ccccc3N=C(SCC(=O)Nc3ccc(F)cc3)N2C1=O)NCc1cccs1 (centres undefined) -40.6%
Cc1cccc(NC(=O)c2ccc(CNS(=O)(=O)c3ccc4c(c3)C(C)(C)C(=O)N4C)cc2)c1 -45.1%
CC(C)(C)OC(=O)Nc1ccc(-c2cc(C(=O)NCCCCCCC(=O)NO)no2)cc1 -35.5%
Cc1ccccc1C(=O)N(Cc1ccc(N(C)C)cc1)CC1CCCO1 (centres undefined) -9.51%
Cc1ccc(N2CCN(C(=O)NCc3noc4ccc(C)cc34)CC2)c(C)c1 -10.2%
COc1ccccc1NC(=O)CSC1=Nc2ccccc2C2=NC(CC(=O)NCc3ccc4c(c3)OCO4)C(=O)N12 (centres undefined) -24.2%
COc1ccccc1N=C1SC(C(=O)Nc2ccccc2OC)CC(=O)N1C (centres undefined) -23.8%
CCOC(=O)c1noc2ncnc(NCc3ccccc3OC)c12 -0.586%
O=C(NCCOCCn1c(=O)oc2ccccc21)Nc1cccc(Cl)c1 -7.06%
COC(=O)c1ccccc1NC(=O)C1CCCN(c2ncnc3onc(C)c23)C1 (centres undefined) -6.06%
Cc1ccc(CNC(=O)c2sc3nc4n(c(=O)c3c2C)CCCCC4)cc1 2.92%
CCCS(=O)(=O)N1CC(=O)N(c2ccc(C)cc2C)C(C)(C(=O)NC2CCCCCC2)C1 (centres undefined) -11.9%
O=C(Cn1c(=O)nc(-c2ccccc2)c2cc(Cl)ccc21)NCc1ccc(Cl)cc1 -25.6%
O=C(CCS(=O)(=O)c1cc2c3c(c1)CCN3C(=O)CC2)Nc1cccc(Br)c1 0.568%
CCOc1ccc(CCNC(=O)c2ccc3c(c2)N(Cc2ccccc2F)C(=O)c2ccccc2S3=O)cc1OCC (centres undefined) -17.5%
COc1ccc(CCNS(=O)(=O)c2cc(-c3onc(C)c3C)ccc2OC)cc1OC -10.7%
CCc1ccc(NC(=O)CSc2nc(=O)n(Cc3ccncc3)c3c2CCC3)cc1 -31.8%
Cc1ccc(C)c(Nc2nn3c(=O)c4cc5c(cc4nc3s2)OCO5)c1 14.3%
Cc1cc2c(cc1S(=O)(=O)CCC(=O)N1CCCCC1C)OCC(=O)N2 (centres undefined) -11.2%
O=C(COCc1cc(-c2ccc3c(c2)OCO3)on1)Nc1cc(C(F)(F)F)ccc1Cl -4%
CCN1CCN(CCCNC(=O)Cn2c(-c3cccs3)cc3cc(F)ccc32)CC1 -14.4%
CCCCN(C)CCNC(=O)CN1C(=O)CSc2ccc(S(=O)(=O)N3CCCCC3)cc21 -2.56%
CCOC(=O)N1CCc2c(sc(NCc3cccs3)c2C(=O)Nc2ccc(OC)cc2OC)C1 -90.6%
O=c1c(S(=O)(=O)c2ccccc2)cn(Cc2cccc(F)c2)c2cc(N3CCCC3)c(F)cc12 -8.52%
COc1ccccc1N1CCN(S(=O)(=O)CCNC(=O)Cc2ccc(Cl)cc2)CC1 -21%
CCCCNC(=O)CCn1c(=O)c2cccn2c2cccnc21 -1.79%
CCN(C(=O)c1c(C)oc2ncn(CC(C)C)c(=O)c12)c1cccc(Cl)c1 -7.11%
Cc1oc(-c2ccc(C(=O)NCc3ccccc3Cl)cc2)nc1CN1CCc2ccccc21 -34.4%
CCCn1c(CCC(=O)Nc2ccc(C)c(Cl)c2)nc2cccnc21 -19.2%
COc1ccc(C)cc1NC(=O)c1cc(S(=O)(=O)N2CCc3ccccc3C2)ccc1F -29.2%
CCC1=C(c2ccc(C)cc2)S(=O)(=O)N=C1N1CCC(C(=O)NCCc2ccc(Cl)cc2)CC1 -39.7%
Cc1ccc(CCNC(=O)c2c[nH]c3ccc(S(=O)(=O)Nc4cccc(C(F)(F)F)c4)cc3c2=O)cc1 -43.4%
O=C(CC1N=C2c3ccccc3N=C(SCc3cccc(Cl)c3)N2C1=O)NCCc1ccccc1 (centres undefined) -34.2%
Cc1ccc(S(=O)(=O)C(CNC(=O)C(=O)NCCc2ccc(Cl)cc2)c2cccs2)cc1 (centres undefined) -38.6%
Cc1ccc(NC(=O)c2oc3ccccc3c2NC(=O)C23CC4CC(CC(C4)C2)C3)cc1 -8.42%
CCOc1ccc(Nc2ncnc3scc(-c4ccc(OC)cc4)c23)cc1 -19.3%
Cc1ccc(C(=O)NCc2ccccc2)cc1NC(=O)c1nsc2ccccc12 17.8%
CCOC(=O)c1c(C)[nH]c(C)c1S(=O)(=O)N1CCC(C(=O)Nc2ccc(C)c(N(C)C)c2)CC1 -9.42%
Cn1cc(C(=O)NCCc2ccccc2)c(=O)c2cc(S(=O)(=O)N3CCCCC3)ccc21 -5.05%
CC(C)(C)OC(=O)N1CCC(c2c(C(=O)N3CCN(Cc4ccccc4)CC3)cnn2-c2ccc(Cl)cc2)CC1 -38.6%
CCc1ccc(N2C(=O)CN(S(=O)(=O)CC)CC2(C)C(=O)NC2CCCCC2)cc1 (centres undefined) -13.6%
Cc1cc(-c2ccc(C)c(S(=O)(=O)NCc3cccs3)c2)on1 -29.7%
Cc1ccc2oc(=O)n(Cc3ccccc3Cl)c2c1 -20.9%
Cc1ccc2oc(-c3cc(NC(=O)c4oc5ccccc5c4C)ccc3Cl)nc2c1 -12.6%
Clc1cccc(-n2nnnc2NCc2ccccc2Oc2ccccn2)c1Cl -22.1%
CCc1ccc(OCC(=O)Nc2cc(-c3nc4cc(C)ccc4o3)ccc2C)cc1 -3.07%
CN(Cc1ccc(F)cc1)S(=O)(=O)c1nnc(NC(=O)c2ccccc2)s1 -22%
CCCNC(=O)C1CCC(CNS(=O)(=O)c2ccc3c(c2)CC(C)N3C(C)=O)CC1 (centres undefined) -19.2%
